± gives the uncertainty stated by the source. The full ranking holds about 9,900 compounds; the median of “viability index relative to DMSO control” is about 1, and the lowest 2% start at about 0.85. The list shows a part of the results.
System: Plasmodium falciparum NF54 stage V gametocytes
Experiment: viability index relative to DMSO control (fraction); higher = less gametocyte killing
Conditions: 2.5 µM, incubation time: 72 h
Method: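 Broad DOS informer set and blood-stage-active DOS compounds screened in duplicate at 2.5 µM against P. falciparum NF54 stage V gametocytes with the serum-free one-step SaLSSA (1536-well): 72 h at 37 °C under low oxygen, then saponin lysis and MitoTracker Red CMXRos staining, with high-content imaging. Viability index = viable-object count divided by the plate mean of DMSO wells (0 = killed, about 1 = inactive).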

[1] = library set: Broad Institute DOS

Compound	viability index [1]	viability index (library set: Broad Institute Blood Stage)
C[C@@H]1CN([C@@H](C)CO)C(=O)c2ccccc2-c2ccccc2CO[C@@H]1CN(C)Cc1ccc(Oc2ccccc2)cc1	0.871 ± 0.0091	
O=C(Nc1cc(F)ccc1F)N1[C@@H]2CNC[C@H]1[C@@H]2c1ccc(/C=C/c2ccccc2)cc1	1.03 ± 0.028	
C[C@@H](NC(=O)C[C@H]1C[C@H]2c3cc(NS(=O)(=O)c4ccc(F)cc4)ccc3O[C@H]2[C@@H](CO)O1)c1ccccc1	1.08 ± 0.027	
Cc1ccccc1-c1ccc([C@H]2[C@H]3CNC[C@@H]2N3Cc2cccnc2)cc1	1.09 ± 0.037	
Cc1ccc(S(=O)(=O)N[C@@H]2C=C[C@H](CC(=O)NCc3ccc(Cl)c(Cl)c3)O[C@H]2CO)cc1	1.03 ± 0.058	
Cc1ccc(CN2CC(=O)N3[C@H](CO)[C@H](c4ccc(-c5ccccc5F)cc4)[C@@H]3C2)cc1	1.1 ± 0.023	
COc1cccc(S(=O)(=O)N2CCCCN3[C@H](CO)[C@H](c4ccc(C#CCC(C)C)cc4)[C@H]3C2)c1	0.6428 ± 0.0032	
N#C[C@@H]1[C@@H](c2ccccc2C2=CCCCC2)[C@@H](CO)N1C(=O)c1ccccn1	1.01 ± 0.096	
OC[C@@H]1[C@@H](c2ccc(-c3cccc(F)c3)cc2)[C@@H]2CN(Cc3cncnc3)CCCCN12	0.968 ± 0.048	
O=C(C[C@@H]1CC[C@H]2[C@@H](COC[C@H](O)CN2Cc2cccc(Cl)c2)O1)NCc1cccc(F)c1	1 ± 0.051	
Cc1ccc(S(=O)(=O)Nc2cccc3c2O[C@H](CN(C)C(=O)Nc2ccc(C(F)(F)F)cc2)[C@@H](C)CN([C@H](C)CO)C3=O)cc1	1.02 ± 0.029	
C[C@@H]1CN([C@@H](C)CO)C(=O)c2cc(NC(=O)Nc3cccc4ccccc34)ccc2O[C@@H](C)CCCCO[C@@H]1CN(C)S(=O)(=O)c1cn(C)cn1	0.949 ± 0.081	
CCC(=O)N1C[C@@H](O)COC[C@H]2O[C@@H](CC(=O)NCc3ccc(Oc4ccccc4)cc3)CC[C@@H]21	1 ± 0.043	
COc1ccc2c3c([C@@H](CO)N(C)C[C@]33CCN(CC3)C(=O)c3ccc4OCOc4c3)n(C)c2c1	0.9516 ± 0.0011	
O=C(C1CCOCC1)N1CC(=O)N2[C@@H](CO)[C@@H](c3ccc(-c4cccnc4)cc3)[C@@H]2C1	1.04 ± 0.028	
CC(C)C#Cc1ccc([C@@H]2[C@@H](CO)N(C(=O)c3cccc(F)c3)[C@H]2C#N)cc1	1.17 ± 0.073	
N#C[C@H]1[C@H](c2ccccc2)[C@H](CO)N1C(=O)CCN1CCCCC1	1.03 ± 0.068	
CC(C)(O)C#Cc1ccc([C@H]2[C@H]3CN(S(C)(=O)=O)CCCCN3[C@H]2CO)cc1	1.03 ± 0.037	
O=C(C[C@H]1CC[C@@H]2[C@H](COC[C@H](O)CN2C(=O)Nc2ccc(F)cc2)O1)NC1CCC1	1.11 ± 0.016	
O=C(C[C@H]1C[C@@H]2c3cc(NS(=O)(=O)c4ccc(F)cc4)ccc3O[C@@H]2[C@@H](CO)O1)NCCN1CCCCC1	1.05 ± 0.014	
CO[C@@H]1CN(C)C(=O)c2ccc(NC(=O)Nc3cc(F)ccc3F)cc2OC[C@H](C)N(C(=O)c2ccccn2)C[C@@H]1C	1.07 ± 0.12	
O=C(NC[C@@H]1[C@@H](c2ccccc2)[C@H](CO)N1C(=O)C1CCC1)NC1CCCC1	1.01 ± 0.047	
CCS(=O)(=O)N1C[C@@]2(C1)CN(Cc1cc(F)ccc1F)[C@@H](CO)c1c2c2ccc(OC)cc2n1C	0.927 ± 0.015	

Compound	viability index [1]	viability index (library set: Broad Institute Blood Stage)
C[C@H](CO)N1C[C@H](C)[C@@H](CN(C)C(=O)Nc2ccc(C(F)(F)F)cc2)Oc2ccc(NC(=O)C3CCCCC3)cc2C1=O	0.982 ± 0.022	
COc1ccccc1-c1cnc2c(c1)C(=O)N([C@@H](C)CO)C[C@@H](C)[C@H](CN(C)C(=O)CC1CC1)O2	1.06 ± 0.1	
O=C(CC1CC1)N1CC(=O)N2[C@H](CO)[C@H](c3ccc(C#Cc4cccc(F)c4)cc3)[C@@H]2C1	0.9103 ± 0.0077	
COc1ccc(CN(C)C[C@H]2OCCCC[C@@H](C)Oc3ccc(NC(=O)C4CCCCC4)cc3C(=O)N([C@@H](C)CO)C[C@@H]2C)cc1	0.905 ± 0.046	
O=C(Nc1ccc2c(c1)[C@H]1C[C@H](CC(=O)N3CCCCC3)O[C@@H](CO)[C@H]1O2)NC1CCCCC1	0.981 ± 0.14	
O=C(C[C@@H]1CC[C@H](NC(=O)Nc2ccc(C(F)(F)F)cc2)[C@H](CO)O1)NCc1cccc(F)c1	1 ± 0.024	
COc1ccccc1S(=O)(=O)N1CC[C@@H]2[C@H]1c1cc(C#CC3CCCCC3)ccc1N[C@@H]2CO	1.22 ± 0.062	
O=C(C[C@@H]1CC[C@H]2[C@@H](COC[C@H](O)CN2CCc2ccccc2)O1)NCCCN1CCOCC1	1.05 ± 0.044	
Cc1cccc(S(=O)(=O)N2C[C@@H](O)COC[C@H]3O[C@H](CC(=O)Nc4ccccc4)CC[C@@H]32)c1	1.053 ± 0.0012	
CNC[C@H]1Oc2c(NS(=O)(=O)c3ccc(Cl)cc3)cccc2C(=O)N([C@@H](C)CO)C[C@H]1C	1.01 ± 0.034	
O=C(C[C@@H]1C[C@@H]2c3cc(NC(=O)CC4CC4)ccc3O[C@@H]2[C@H](CO)O1)NCC1CC1	1.062 ± 0.0029	
COc1ccc(S(=O)(=O)Nc2ccc3c(c2)CC(=O)N([C@H](C)CO)C[C@@H](C)[C@H](CN(C)Cc2ccc(C(=O)Nc4ccccc4N)cc2)O3)cc1	0.966 ± 0.1	
COCC(=O)N(C[C@H]1[C@H](c2ccccc2)[C@@H](CO)N1C(=O)NC(C)C)C(C)C	1 ± 0.04	
COc1ccc2c3c([nH]c2c1)[C@H](CO)N(C[C@]31CCN(CC1)C(=O)Nc1ccc2OCOc2c1)C(=O)Nc1ccc(F)cc1	0.95 ± 0.1	
CNC[C@H]1OCCCC[C@@H](C)Oc2ccc(NS(=O)(=O)c3ccc(F)cc3)cc2C(=O)N([C@H](C)CO)C[C@H]1C	1.06 ± 0.019	
CCS(=O)(=O)N1[C@H](C#N)[C@@H](c2ccc(-c3cccc(F)c3)cc2)[C@@H]1CO	1.12 ± 0.043	
COc1ccc(C#Cc2ccc3c(c2)O[C@@H](CN(C)C(=O)Nc2cccc(OC)c2)[C@@H](C)CN([C@@H](C)CO)S3(=O)=O)cc1		0.612 ± 0.071
C/C=C/c1ccc([C@@H]2[C@@H](CO)N3C(=O)CN(C(=O)Nc4ccc(F)cc4)C[C@H]23)cc1	1.03 ± 0.018	
C/C=C/c1ccc([C@H]2[C@H]3CNC[C@@H]2N3C(=O)Nc2ccc(C(F)(F)F)cc2)cc1	1.12 ± 0.018	
Cc1cccc(-c2ccc([C@H]3[C@H]4CNC[C@@H]3N4C(=O)Nc3ccccc3Cl)cc2)c1	1.04 ± 0.054	
O=C(Cc1cccnc1)N1CC(=O)N2[C@@H](CO)[C@H](c3ccc(/C=C/c4ccccc4)cc3)[C@@H]2C1	1.015 ± 0.0057	
CC(C)CC#Cc1ccc([C@H]2[C@@H](CO)N3C(=O)CN(C(=O)c4ccccn4)C[C@@H]23)cc1	0.975 ± 0.037	
Cc1noc(C)c1NC(=O)N(C)C[C@H]1OCCCC[C@H](C)Oc2ccc(NC(=O)Nc3ccc(C(F)(F)F)cc3)cc2C(=O)N([C@H](C)CO)C[C@@H]1C	1.09 ± 0.011	

Compound	viability index [1]	viability index (library set: Broad Institute Blood Stage)
Cc1ccc(S(=O)(=O)N[C@H]2C=C[C@@H](CC(=O)NCc3ccc(Cl)c(Cl)c3)O[C@H]2CO)cc1	0.972 ± 0.076	
CCN1CC(=O)N2[C@H](CO)[C@H](c3ccc(Br)cc3)[C@H]2C1	0.997 ± 0.093	
N#Cc1ccc(-c2ccc3c(c2)[C@H]2[C@H](CCN2C(=O)C2CCCCC2)[C@@H](CO)N3)cc1	1.03 ± 0.078	
COCC(=O)Nc1ccc2c(c1)[C@@H]1C[C@@H](CC(=O)N3CCOCC3)O[C@@H](CO)[C@@H]1O2	1.02 ± 0.051	
CCCNC(=O)N1C[C@]2(CCN(CC2)S(=O)(=O)CC)c2c([nH]c3cc(OC)ccc23)[C@H]1CO	0.976 ± 0.043	
COc1cccc(NC(=O)C[C@H]2CC[C@@H]3[C@H](COc4ccc(NS(=O)(=O)c5cccc(F)c5)cc4C(=O)N3C)O2)c1	1.13 ± 0.1	
COc1cccc(NC(=O)N[C@H]2CC[C@H](CC(=O)N3CCN(C)CC3)O[C@@H]2CO)c1	1.12 ± 0.1	
COc1cccc(NC(=O)N2[C@@H](CO)[C@H](c3ccccc3)[C@@H]2CNCC(C)C)c1	0.956 ± 0.041	
COc1cccc(NC(=O)N[C@H]2CC[C@@H](CC(=O)N3CCN(C)CC3)O[C@H]2CO)c1	1.11 ± 0.026	
O=C(CCN1CCCCC1)N[C@@H]1CC[C@H](CC(=O)N2CCC(Cc3ccccc3)CC2)O[C@H]1CO	0.997 ± 0.096	
COc1cccc(-c2ccc([C@@H]3[C@@H]4CN(Cc5ccccn5)C[C@H]3N4)cc2)c1	1.03 ± 0.033	
COc1ccc(S(=O)(=O)Nc2ccc3c(c2)C(=O)N([C@H](C)CO)C[C@H](C)[C@H](CN(C)C(=O)Nc2c(C)noc2C)OCCCC[C@H](C)O3)cc1	1.1 ± 0.11	
O=C(Nc1cc(F)ccc1F)N1CC(=O)N2[C@H](C1)[C@@H](c1ccc(/C=C/c3ccccc3)cc1)[C@@H]2CO	1.16 ± 0.05	
COc1ccc(C#Cc2ccc([C@H]3[C@H](CO)N4CCCCN(C)C[C@@H]34)cc2)cc1	1.029 ± 0.0018	
CC(C)C#Cc1ccc([C@@H]2[C@H]3CN(C(=O)NC4CCCC4)CC(=O)N3[C@H]2CO)cc1	1.06 ± 0.044	
COc1ccccc1NC(=O)Nc1ccc2c(c1)C(=O)N(C)[C@H]1CC[C@H](CC(=O)Nc3ccc4c(c3)COC4)O[C@@H]1CO2	0.941 ± 0.088	
CCC(=O)N1[C@H](CO)[C@@H](c2ccccc2)[C@@H]1CN(C)C(=O)CN1CCOCC1	1.04 ± 0.05	
COc1ccc(-c2ccc([C@H]3[C@H]4CN(C(=O)C5CC5)CC(=O)N4[C@H]3CO)cc2)cc1	1.09 ± 0.078	
CCC(=O)N1[C@@H]2c3ccc(-c4ccc(F)cc4)c(=O)n3C[C@@H]2[C@@H](CO)[C@@H]1C(=O)N(C)C	1.078 ± 0.0015	
CO[C@H]1CN(C)C(=O)c2cc(NC(=O)C3CCCCC3)ccc2OC[C@@H](C)N(Cc2cccnc2)C[C@H]1C	1.1 ± 0.097	
O=C(C[C@H]1C[C@@H]2c3cc(NC(=O)NC4CCCC4)ccc3O[C@@H]2[C@H](CO)O1)NCc1ccccc1F	1.09 ± 0.016	
CO[C@@H]1CC[C@@H]2CCOc3c(C#N)cccc3C(=O)N(C)CC3(CCCCC3)CC(=O)N(C)C[C@H]1O2	0.9758 ± 0.0056	
OC[C@@H]1Nc2ccc(C#Cc3ccc(F)cc3)cc2[C@@H]2[C@H]1CCN2Cc1ccc2c(c1)OCO2	1.06 ± 0.049	
